# Measurements from the supplement of paper PMC4466236.
# Over roughly 33,000 sequences, “E-score (dimensionless, -0.5 to 0.5)” has its median near -0.058; the highest 2% begin near 0.35. The list shows a part of the results.
# Test system: MvaT
# Assay: PBM 8-mer E-score (mean of HK and ME arrays) (E-score (dimensionless, -0.5 to 0.5)); higher = stronger relative binding preference; most listed sequences are background and not binding sites
# Outline: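 Reported values are rank-based E-scores, taken as the mean of two universal arrays and parsed with a custom script. Each 8-mer score falls between -0.5 and 0.5. The arrays, ME and HK, were double-stranded 60-mers with a constant 25-mer primer region and a variable 35-mer region covering all 8-mers. They were probed, by an earlier protocol, with full-length P. aeruginosa MvaT carrying an N-terminal glutathione S-transferase fusion.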
row,Sequence,PBM 8-mer E-score
1,CACTCTAA,0.0768
2,ACCGTTAC,0.0297
3,AAGAAGGC,-0.299
4,CGTAGCTC,-0.151
5,CATTTAAG,0.287
6,GTAAAGAA,0.0617
7,CGAATGAC,0.0466
8,CCCAATTC,0.00595
9,AGTAAGGA,0.0652
10,TAACCCAA,0.16
11,CGTCGAGC,-0.191
12,TCATGGCA,-0.0856
13,GGCAGGGA,-0.242
14,ACGCGACC,-0.031
15,CAATCGCG,-0.0474
16,AAGGTAAG,-0.105
17,TATGCGCA,0.189
18,GTGACTTA,0.0291
19,ACGCCTGA,-0.109
20,CATTTGGC,-0.145
21,CGCAAGCC,-0.179
22,ACTTTCCT,0.0961
23,GACGGCAA,-0.16
24,ATGACTTC,-0.0129
25,GACCGAAC,-0.217

row,Sequence,PBM 8-mer E-score
1,ATGAGACA,0.0905
2,GCATCGCC,-0.38
3,AGTGCGTG,0.0803
4,ACACGTCG,-0.116
5,GAGTGGCC,-0.259
6,AATGGTTC,-0.0396
7,GGCAAAGA,0.02
8,CCTGCGTA,-0.182
9,AACTGTTA,0.301
10,AAGGTTAT,0.115
11,AACCGAGT,-0.0818
12,CAAAGCTG,-0.196
13,ATATGAGC,0.161
14,GGCATACC,-0.156
15,CAATAAGC,0.171
16,AGTAGTAC,0.144
17,GAAAAGAC,-0.00794
18,CGCCTTAC,-0.234
19,TCTGCTCA,-0.118
20,CAAAAGGG,-0.119
21,GAAAAAAA,0.0648
22,CCGGTTTC,-0.266
23,AGGCCCTG,-0.126
24,CTAAGACA,-0.123
25,GACAAATC,-0.0221

row,Sequence,PBM 8-mer E-score
1,GACATTCA,-0.0871
2,AGCAGTCC,-0.184
3,CGCGCTGA,-0.13
4,ATAGATAC,0.1
5,GTACACGA,-0.122
6,CCGTATGA,-0.119
7,TTACTGAA,0.182
8,AAGCTCTA,-0.217
9,ATCACGGG,-0.203
10,CGACGGCA,-0.163
11,GGTAATTA,0.286
12,GACATGAC,0.0334
13,CCGAATTC,0.0781
14,GGAAGTAA,0.206
15,CGCTGGAA,-0.092
16,GCGTGACA,-0.0952
17,CTGCTATA,0.131
18,CCTAAGCA,-0.246
19,ACCATGTC,-0.156
20,CGGTTTTA,0.132
21,CATTCCCC,-0.183
22,CAATCGAG,-0.215
23,GAAATGCA,-0.0166
24,GCGCTGCC,-0.4
25,GCCTCCCA,-0.29

row,Sequence,PBM 8-mer E-score
1,GAACGACA,-0.0982
2,GGCAGGAC,-0.285
3,CACTGTAC,0.0194
4,CATAATGC,0.111
5,ACGTTGCT,0.0234
6,GCACCGAC,-0.201
7,GATTTACA,0.072
8,AGTTTTTG,0.158
9,GGATTAGA,0.0862
10,AGATAACG,0.0641
11,CACTACGA,-0.0417
12,GAAGCTGA,-0.135
13,CCACCGGG,-0.309
14,CATTTAAA,0.386
15,CCGGTTTA,-0.0258
16,AGGCCAGA,-0.201
17,GTCATAAC,0.0325
18,CATCACTA,-0.0133
19,AAAAGTGC,0.142
20,GAATCATA,0.151
21,CTAGACGC,-0.196
22,CTAAAGAG,0.0099
23,AACCCGCG,-0.188
24,AACATGTG,0.0114
25,CGGTGACA,-0.0754

row,Sequence,PBM 8-mer E-score
1,CATAGCAC,-0.0427
2,CCCCGACG,-0.194
3,CTAAACAG,0.0489
4,CCGTACCA,-0.208
5,ATTACTTA,0.334
6,CTTATTTC,0.291
7,CGTTACCA,0.0947
8,CGCAGACC,-0.137
9,ATCTTCTG,0.00225
10,CCCGACGC,-0.329
11,AGATAGCC,-0.229
12,CCGATAGC,-0.177
13,AGGAGTAT,0.0184
14,AGTAACGG,0.0915
15,GGGATCAC,-0.277
16,CGGCCCTC,-0.304
17,AACATGGA,0.118
18,GGGATAGA,-0.169
19,GATGTGCC,-0.204
20,GACCTGGC,-0.217
21,CAGAATTC,0.0762
22,AACCCACA,0.171
23,CCCGATCA,-0.205
24,CACAGTGG,-0.169
25,GGACCGAC,-0.126

row,Sequence,PBM 8-mer E-score
1,AAGAAGAC,-0.0906
2,GCACTCGC,-0.134
3,GCAGCGGA,-0.124
4,AAGTGACA,0.0308
5,CACCGCAA,-0.173
6,GCTCCTCC,-0.391
7,AGACAAAA,0.00125
8,ATGCTGGA,-0.153
9,GAGCTTCC,-0.17
10,GGTGTTAC,0.046
11,AACACGAC,-0.000712
12,AATCTCAA,0.141
13,CCACCTCA,-0.174
14,ACTTAGCA,-0.0524
15,CACAGGAA,0.0166
16,ACAATCGG,-0.0629
17,GCATTGAC,-0.131
18,GGGTGTGA,-0.197
19,CCTCCGCA,-0.268
20,CATCCATA,0.0526
21,GCTAGCAC,-0.264
22,TACCCATA,0.161
23,CGTGTTGC,-0.1
24,CGATCGCG,-0.0502
25,ACGGACAA,0.0196

row,Sequence,PBM 8-mer E-score
1,AGCAAACT,0.139
2,AGTAACTG,0.251
3,AAAATAGC,0.0928
4,CAGCCTCA,-0.204
5,ACTTTTTC,0.0911
6,CCACGTCC,-0.206
7,ACGACTTC,-0.178
8,GGCGTACA,0.0736
9,ATATTCAC,0.282
10,CTGGGCAA,-0.204
11,CAATTTAA,0.366
12,ACTGGTAG,-0.15
13,CACTTATC,0.14
14,AAGACGCG,-0.0462
15,ACATCCGA,-0.00247
16,TAATGACA,0.169
17,ACACAATG,0.0203
18,CAAGGGGC,-0.378
19,GAGGCACC,-0.229
20,ACCTGTTG,-0.18
21,CGGTTCTC,-0.0601
22,CCGCTACG,-0.312
